# Experimental data published in publication PMC4336329 (PLoS ONE, 2015).
# Screen size: about 310,000 compounds; about 2,200 (0.71%) showed an effect of 50% or more. Effects have a minus sign here. Some of the results follow.
# Target: human ether-à-go-go-related gene (hERG) potassium channel (human, UniProt Q12809)
# Experiment: primary screen, population patch clamp on CHO cells stably expressing hERG
# human ether-à-go-go-related gene (hERG) potassium channel, sequence (Q12809 whole entry, looked up): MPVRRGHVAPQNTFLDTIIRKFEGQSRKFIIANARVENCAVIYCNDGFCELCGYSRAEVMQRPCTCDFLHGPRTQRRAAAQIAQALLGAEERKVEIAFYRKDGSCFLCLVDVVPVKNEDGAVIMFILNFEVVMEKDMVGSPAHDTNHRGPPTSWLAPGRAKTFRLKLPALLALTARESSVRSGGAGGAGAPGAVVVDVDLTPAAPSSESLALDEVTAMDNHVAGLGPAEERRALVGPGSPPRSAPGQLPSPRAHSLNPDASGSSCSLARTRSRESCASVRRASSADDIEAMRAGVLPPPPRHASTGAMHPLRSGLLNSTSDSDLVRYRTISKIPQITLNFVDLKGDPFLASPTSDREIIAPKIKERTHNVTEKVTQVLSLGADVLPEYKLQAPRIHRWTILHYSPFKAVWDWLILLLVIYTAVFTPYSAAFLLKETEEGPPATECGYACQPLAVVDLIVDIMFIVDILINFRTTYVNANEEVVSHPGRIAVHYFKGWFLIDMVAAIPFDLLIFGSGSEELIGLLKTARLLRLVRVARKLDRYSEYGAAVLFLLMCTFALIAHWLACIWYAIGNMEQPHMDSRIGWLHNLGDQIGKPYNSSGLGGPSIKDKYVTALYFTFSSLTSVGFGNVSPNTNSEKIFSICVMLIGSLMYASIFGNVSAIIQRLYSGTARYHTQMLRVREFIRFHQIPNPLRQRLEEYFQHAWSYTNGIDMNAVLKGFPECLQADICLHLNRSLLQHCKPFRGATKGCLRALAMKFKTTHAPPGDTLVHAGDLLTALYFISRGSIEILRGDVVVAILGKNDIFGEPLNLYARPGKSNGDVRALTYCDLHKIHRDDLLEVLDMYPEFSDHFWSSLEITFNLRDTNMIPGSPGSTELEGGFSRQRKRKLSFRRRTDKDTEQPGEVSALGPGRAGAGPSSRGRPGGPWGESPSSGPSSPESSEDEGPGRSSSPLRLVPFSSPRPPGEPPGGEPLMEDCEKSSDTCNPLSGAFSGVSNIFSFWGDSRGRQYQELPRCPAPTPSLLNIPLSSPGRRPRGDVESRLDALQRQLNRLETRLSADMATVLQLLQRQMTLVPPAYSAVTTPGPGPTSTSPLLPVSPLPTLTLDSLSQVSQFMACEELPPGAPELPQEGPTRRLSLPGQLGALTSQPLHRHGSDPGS
row,SMILES,"hERG current change (%, negative = inhibition) at 1uM"
1,Cc1cc(C)c(C(=O)Nc2ccc(S(=O)(=O)Nc3onc(C)c3C)cc2)c(C)c1,4.08%
2,CCCn1c(C(O)c2ccc(C)cc2)nc2ccccc21 (stereo not drawn),17.8%
3,Cc1ccc(Oc2c(F)c(F)nc(N3CCCC3)c2F)cc1,4.44%
4,CC(C)OC(=O)N(C)c1ccc(C(O)(C(F)(F)F)C(F)(F)F)cc1,-3.18%
5,CCOC(=O)/C(C#N)=C1\Nc2ccccc2N=C1N(CC(C)C)CC(C)C,10.6%
6,CCN(CC)CCNC(=O)CCCNC(=O)Cn1cnc2sc(C)c(C)c2c1=O,4.5%
7,O=C(Nc1ccccc1C(F)(F)F)c1cc2ccccc2o1,15.8%
8,CC(=O)Nc1ccc(S(=O)(=O)Nc2nccc(C)n2)cc1,1.61%
9,CCOc1ccc(NC(=O)Cc2cccc3ccccc23)c([N+](=O)[O-])c1,10.9%
10,CC(C)NC(=O)CCc1nc2cccnc2n1-c1ccccc1,4.54%
11,C=CCNC(=S)Nc1cccc(N)c1,-7.19%
12,CC(=O)Nc1ccc(NC(=O)CCCSc2nc3ccccc3[nH]2)cc1,2.66%
13,Cc1ccc(Oc2nc(CN3CCOCC3)nc3sc4c(c23)CCC(C)C4)cc1 (stereo not drawn),6.62%
14,COc1ccc(/C=N/c2oc(-c3ccccc3)cc2C#N)cc1OC,5.99%
15,Cc1cccc(NS(=O)(=O)c2c(C(=O)N3CCOCC3)c(C)n(C)c2C)c1C,18.8%
16,C=CCn1cccc(C(=O)Nc2ccc(OCC)cc2)c1=O,4.1%
17,CCOC(=O)/C=C(\C)N1N=C(c2ccccc2)CC1c1ccccc1 (stereo not drawn),7.11%
18,CC(C)c1ccc(N=Cc2c(O)n(C3CC3)c(=S)[nH]c2=O)cc1,8.16%
19,COc1ccc(/C=N\NC(=O)c2ccccc2)cc1COc1ccccc1,16.7%
20,CCc1noc(C)c1C(=O)Nc1nnc(C(CC)CC)s1,-3.95%
21,O=C(Cc1cc(=O)[nH][nH]1)N/N=C/c1c(Cl)cccc1Cl,12%
22,COc1ccc(N=C(N)SCc2ccccn2)cc1.Cl,0.799%
23,Cn1c(-n2c(CCCN3C(=O)c4ccccc4C3=O)nc3ccccc3c2=O)nc2ccccc21,7.43%

row,SMILES,"hERG current change (%, negative = inhibition) at 1uM"
1,N#C/C(=C(/O)c1ccc(C(=O)c2ccccc2)cc1)c1nc2ccccc2[nH]1,9.44%
2,COc1ccc(OC)c(C(=O)CSc2nccc(-c3ccc(Br)cc3)n2)c1,11.9%
3,CN(C)CCCn1c2c(c(SCC(=O)Nc3nccs3)nc1=O)CCC2,-0.215%
4,Cc1cc(C(=O)OCC(=O)Nc2ccc(F)c(F)c2)c(C)o1,13.3%
5,CC12CCC(C(=O)Nc3ccccc3Cl)([C@H](Br)C1=O)C2(C)C (stereo partly drawn),15.4%
6,COc1ccc(CNC(=O)CN(C(=O)CCC(=O)Nc2nccs2)c2cccc(C)c2)cc1,21.6%
7,O=C(O)C1CCN(S(=O)(=O)N2CCOCC2)CC1,8.3%
8,CCCN(CCC)CCCNC(=O)c1cn(CCOC)c(=O)c2c1c1ccccc1n2C,0.949%
9,O=C(O)C(Cc1ccccc1)N1C(=O)C2CCCCC2C1=O (stereo not drawn),11.1%
10,COc1ccc(-c2cnc(SCCNC(=O)c3ccc4c(c3)OCO4)[nH]2)cc1,2.78%
11,COc1ccc(C(=O)c2c[nH]c(C(=O)N=CN(C)C)c2)cc1,8.77%
12,CCn1nc(NC(=O)c2cccs2)c2cc3ccccc3nc21,14.8%
13,O=C(O)c1cccc(S(=O)(=O)Nc2ccccc2N2CCOCC2)c1,-0.987%
14,Cc1ccc(Oc2c(C=O)c3ccccc3n2C)cc1,4.83%
15,CC(C)CNc1ncnc2c1cnn2Cc1ccccc1Cl,9.47%
16,C=C(C)C(=O)N1CC2(CC(c3cccc(NC(=O)COc4ccc(Cl)cc4)c3)=NO2)C[C@@H]1C(N)=O (stereo partly drawn),1.81%
17,Cc1ccc(Oc2cc(NC(=O)CCCn3nc([N+](=O)[O-])c(Cl)c3C)cc([N+](=O)[O-])c2)cc1,11.1%
18,C=CCNC(=O)Cc1c(OC)ccc2cc(Br)ccc12,11.7%
19,CCC(=O)c1ccc(OCC(O)CN2CCN(c3ccc(F)cc3)CC2)cc1 (stereo not drawn),-15.1%
20,CCCn1ncc(CN2CCC(n3nccc3NC(=O)c3ccccc3Cl)CC2)c1C,-47.6%
21,Nn1c(COc2cccc(Br)c2)nnc1SCC(=O)N1CCc2ccccc2C1,3.67%
22,C/C(N)=C(/C#N)C(=O)COC(=O)Cc1coc2ccc3ccccc3c12,22.8%
23,Cc1ccc(C(=O)Nc2nncs2)cc1S(=O)(=O)N1CCOCC1,-2.31%

row,SMILES,"hERG current change (%, negative = inhibition) at 1uM"
1,COc1ccccc1OCCn1c(C)c(C=O)c2ccccc21,11%
2,COc1ccc(NC(=S)N2CCN(C/C=C/c3ccccc3)CC2)c(OC)c1,-32.9%
3,COc1ccc(C(=O)c2c[nH]c(C(=O)NCc3ccco3)c2)cc1,1.11%
4,O=C(N1CCCCCC1)n1c(Cc2ccccc2)nc2ccccc21,-0.756%
5,COc1ccc(C(=O)N2CC(=O)N(CCc3ccccc3)C(=O)C2)cc1OC,9.3%
6,O=C(COC(=O)/C=C/c1ccco1)Nc1ncc(C(F)(F)F)cc1Cl,-0.739%
7,COc1cc(C(=O)O)cc(NC(=O)c2cccs2)c1OC,13.4%
8,Cc1ccc(C)c(NC(=O)C(Sc2cccc[n+]2[O-])c2ccccc2)c1 (stereo not drawn),3.72%
9,COCCCn1c(-c2ccc(OC)cc2)cc(C(=O)NC2CCCCCCC2)c1C,0.513%
10,CCOC(=O)c1cnc(-n2nc(C)cc2C)[nH]c1=O,-19.8%
11,CCc1nnc(NC(=O)CSC(=S)N2CCOCC2)s1,13%
12,O=C(O)c1ccc2c(c1)C(=O)N(C(Cc1ccc(O)cc1)C(=O)O)C2=O (stereo not drawn),15.7%
13,CS(=O)(=O)N1CCN(c2ccccc2NC(=O)C(c2ccccc2)c2ccccc2)CC1,12%
14,CCCc1cc(C(=O)Nc2nccs2)cs1,4.77%
15,CCN(Cc1cc(=O)[nH]c2ccccc12)C(=O)C(C)C,5.42%
16,CCOC(=O)N1CCN(C(=O)c2cc(COc3ccc(F)cc3F)on2)CC1,11.3%
17,COc1cccc(C(c2c(N)n(C)c(=O)n(C)c2=O)C(C)[N+](=O)[O-])c1 (stereo not drawn),12.8%
18,CCN(CC)S(=O)(=O)c1ccc(N2CCCC2)c(NC(=O)c2ccccc2OC)c1,-28.6%
19,O=C(Cn1c(=O)n(-c2ccc(F)cc2)c(=O)c2sccc21)N1CCCC1,1.4%
20,Cc1cccc(C)c1NC(=O)N1CC(C)OC(C)C1 (stereo not drawn),20.8%
21,CCCn1c(=O)c2ccccc2n2c(SCc3nnc(-c4ccccc4Br)o3)nnc12,7.61%
22,Cc1c(C)n(C)c2ccc(C(=O)NCCc3ccco3)cc12,8.95%
23,Cc1cc2cc(CN(CCN(C)C)C(=S)NCc3ccco3)c(=O)[nH]c2cc1C,-5.57%

row,SMILES,"hERG current change (%, negative = inhibition) at 1uM"
1,Cc1ccc(C(=O)NC(=S)N(C)Cc2ccccc2)cc1,12.1%
2,O=C(Cc1ccccc1)NCC1CCCO1 (stereo not drawn),8.6%
3,COc1ccccc1Cn1c(=S)[nH]c2cc(C(=O)NCCN(C)C)ccc2c1=O,10%
4,O=C(CC1C(=O)NCCN1Cc1cccc(Oc2ccccc2)c1)NCCc1ccccn1 (stereo not drawn),9.09%
5,COC(=O)CC1=NN(c2nc3ccccc3s2)C(=O)/C1=C/N(C)C,-0.621%
6,COc1ccc(N/C=C/C(=C(C#N)C#N)N(C)C)cc1,21.6%
7,Oc1ccc(/C=C/c2cnccn2)cc1,5.1%
8,Cc1ccc(C(=O)N2CCC(C(N)=O)CC2)cc1C,7.93%
9,CC(C)(NC(=O)N1CCOCC1)c1cccc(C(C)(C)NC(=O)N2CCOCC2)c1,14.4%
10,CCOC(=O)c1[nH]ncc1CN1CCCC(C(=O)c2cccc(OC(C)C)c2)C1 (stereo not drawn),-22%
11,N#C/C(=C\c1ccc(OC(=O)c2ccc(Cl)s2)cc1)c1nc2ccccc2[nH]1,7.15%
12,CC(C)(C)c1nnc(NC(=O)C2CCN(c3ncccn3)CC2)s1,4.7%
13,COc1cccc(CC2(CO)CCN(S(=O)(=O)c3ccc(OC)cc3OC)CC2)c1,8.91%
14,O=C(CSc1nnnn1C1CC1)Nc1ccc(S(=O)(=O)N2CCOCC2)cc1,13.1%
15,O=C(Nc1ccc(S(=O)(=O)N2CCCCC2)cc1)c1cnccn1,11.5%
16,CC(C)(C)NC(=O)NC(=O)CSc1nnc2ccccn12,3.36%
17,CCOc1ccc(C(CC(=O)O)NC(=O)c2ccco2)cc1OC (stereo not drawn),5.24%
18,O=C(/C=C/c1ccccc1)N1CCN(C(=O)c2ccco2)CC1,-13.1%
19,O=C(O)Cc1sc(NCCc2ccccc2)nc1-c1ccc(F)cc1,9.04%
20,CC(OC(=O)CNC(=O)c1ccc(Cl)cc1)C(=O)NC1CCCCC1C (stereo not drawn),11.8%
21,Cc1ccc(NC(=O)CCn2cnc3ccccc3c2=O)cc1,14.8%
